Reference: ChEMBL document CHEMBL1157539, “Thousands of chemical starting points for antimalarial lead identification” (Nature, 2010)
Over roughly 13,000 compounds, “IFI” has its median near 4; the highest 2% begin near 17. The list shows a part of the results.

assay: GSK_TCMDC: Inhibition Frequency Index (IFI). The number of non-kinase HTS assays where a compound showed > 50 % inhibition, expressed as a percentage of the number of such assays in which the compound was tested (-0 is zero); type: functional

SMILES	IFI [%]
O=C(/C=C/c1ccc(Cl)c(Cl)c1)NCCCCCCN1CCN(C(=O)Nc2ccc(Cl)c(Cl)c2)CC1	5.65
O=C(CCCCCNC(=O)c1ccc(O)c(-c2ccc(Cl)c(Cl)c2)c1)NC1CCCc2ccccc21 (stereo unspecified)	0.74
CCS(=O)(=O)c1ccc(/C(=N/OC)c2ccc[nH]2)cc1	0
Fc1ccc(-c2oc(C3CCN(CCc4ccc(-c5noc(=S)[nH]5)cc4)CC3)nc2COCC(F)(F)F)cc1	2.86
Cc1ccc(C(=O)Nc2ccc(Cl)c(N3CCN(CCc4ccccc4)CC3)c2)cc1	2.44
Cc1cc(CNCCCCCNCc2cccc([N+](=O)[O-])c2)ccc1O	0
Cc1cccc2nc(-c3cccc(-c4cccc(NC(=O)CNC(=O)c5ccc(O)cc5)c4)c3)[nH]c12	4.5
CCCOc1ccccc1-c1nc2[nH]c3c(c2c(=O)[nH]1)CCN(C)C3	1.77
C=CCc1cccc(OC)c1OCCCON1C(=N)N=C(N)NC1(C)C	4.48
O=C(Nc1ccc(-c2ccccc2)c(OCCN2CCNCC2)c1)c1ccc(-c2ccc(Cl)cc2)cc1	9.09
COc1ccc(-c2cnc3ccc(NCc4ccc(S(N)(=O)=O)cc4)nn23)cn1	0.76
O=C(NC1CCN(CC2(c3ccc(Cl)cc3)CCCCC2)CC1)c1cc[nH]n1	7.14
CSc1ccc(NC(=O)Nc2cc(C)nc3ccccc23)cc1	10.1
CCN(CC)CCCCNc1cc(-c2[nH]c(-c3c(Cl)cccc3Cl)nc2-c2ccc3cc(OC)ccc3c2)ccn1	7.8
CCN(CC)CCn1c(=N)n(CC(=O)c2ccc(-c3ccccc3)cc2)c2ccccc21	7.19
CN(c1ccc2c(c1)nc(NCc1ccc(F)cc1)n2C)c1ccnc(Nc2ccc(CS(C)(=O)=O)cc2)n1	9.29
CN(C(=O)C(C)(C)Oc1ccc(Cl)cc1)C1CCN(CCCCCNC(=O)/C=C/c2ccc(Cl)c(Cl)c2)CC1	16
COc1ccc(-c2nonc2NC(=O)c2cccc(C)c2)cc1OC	2.06
O=c1cc(NCCCNCc2cc(Br)cs2)[nH]c2ccccc12	-0

SMILES	IFI [%]
CS(=O)(=O)c1cccc(-c2cnc3[nH]cc(-c4ccc(C(=O)O)cc4)c3c2)c1	2.97
CN1CCN(c2ccnc3cc4ccccc4cc23)CC1	-0
CCOC(=O)c1[nH]c2cc(Cl)cc(Cl)c2c1/C=C/C(=O)Nc1ccc(-c2cnc(NC(C)=O)[nH]2)cc1	2.4
CN(CCCN(C)c1cc(NC(=O)c2ccc(F)cc2)ccn1)Cc1cccc(O)c1	5.26
Cc1cccc2nc(-c3cccc(-c4ccc(C(=O)N5CCCCC5C(C)O)cc4)c3)[nH]c12 (stereo unspecified)	6.54
CS(=O)(=O)N1CC2(CCN(CCC(NC(=O)NCc3ccccc3Cl)c3ccc(Cl)c(Cl)c3)CC2)c2ccccc21 (stereo unspecified)	7.53
COc1ccc(CN(C)CCCc2ccc(NC(=O)c3cccc4c(O)c5ccccc5nc34)cc2)cc1OC	3.13
CN(CCON1C(=N)N=C(N)NC1(C)C)c1ccccc1	4.96
Cc1nnsc1C(=O)Nc1ccc(-c2cccc(-c3nc4cccc(C)c4[nH]3)c2)cc1	6.19
Cc1cccc2nc(-c3ccc(-c4cccc(CNCCCN5CCCC5=O)c4)s3)[nH]c12	3.81
Cc1cnn(-c2cccc(C(=O)NC3CCC(CCN4CCc5ccc(C#N)cc5CC4)CC3)c2)c1 (stereo unspecified)	3.03
Cc1ccc(-n2nc(-c3ccccc3)c3cc(C(=O)NCCN)sc32)cc1	9.52
CCOc1ccc2[nH]c(C)cc(=NN=Cc3ccccc3)c2c1	1.53
NC(=O)C1CCN(Cc2ccc(-c3ccc(-c4nc5cc(F)ccc5[nH]4)cc3)cc2)CC1	4.72
CCOc1cc(C)ccc1C1CCN(CCN2CCC(CNC(=O)c3ccc(-c4ccc(C(F)(F)F)cc4)cc3)CC2)CC1	8.11
CC(=O)Nc1ccc([N+](=O)[O-])c2c(Br)cccc12	1.25
COc1cc(OC)cc(C(=O)Nc2nc(-c3ccc(NC(=O)c4ccccc4)cc3)cs2)c1	-0
CCc1ccccc1N=C1c2c(cccc2[N+](=O)[O-])C(=O)C1C(C)=O (stereo unspecified)	2.17
O=C(CCC1CCCC1)N(Cc1ccc(-c2ccc(CNCCc3ccccc3)cc2)cc1)C1CCCNC1 (stereo unspecified)	4.38

SMILES	IFI [%]
N=C(N)NCC=C(c1ccccc1)c1ccccc1	2.96
COc1cccc2cc(C(=O)N[C@@H](CC(C)C)C(=O)NC3CC[C@@H](C)N(C(=O)Nc4ccncc4)CC3=O)oc12 (stereo partly specified)	5.41
O=c1cc(NCCCNCc2cccc3c2OC(F)(F)O3)[nH]c2ccccc12	1.45
O=C(NCCc1ccccc1)N(Cc1ccccc1-c1cccc(CNC2CCCC2)c1)C1CCN(Cc2ccccc2)CC1	8.45
COC(=O)c1ccc2nc(-c3ccc(/C=C/C(=O)NC4CCN(Cc5ccccc5)CC4)cc3)[nH]c2c1	2.27
CCN1C(=O)N(CCC(C)C)C2(CCN(Cc3ccc(OC)cc3O)CC2)C1=O	0
Cn1c(N)c(C(=O)CSc2nnc(-c3cccs3)n2Cc2ccccc2)c(=O)n(C)c1=O	0.87
CN(C)CCCc1cc(NC(=O)Nc2cccc(Cl)c2Cl)ccc1I	2.9
O=C(NCCCCN1CCC(c2c[nH]c3ccc(-c4ccccc4)cc23)CC1)c1ccc(-c2ccccc2)cc1	9.46
Cc1nc(C)c(-c2ccc(S(=O)(=O)c3ccc(Cl)cc3)cc2)c(O)c1Br	0
O=C(NC1CC1)c1cnc(N2CCC(Cc3ccccc3)CC2)c(Cl)c1	9.52
CC(=O)Nc1ccc2[nH]cc(C3CCN(CCC4CCN(C(=O)/C=C/c5ccc(Cl)c(Cl)c5)CC4)CC3)c2n1	2.13
Cc1nc(-c2ccc(-c3ccc(C(=O)Nc4ccc(-n5ccnc5)c(N5CCN(C)CC5)c4)cc3)c(C)c2)no1	6.38
CC(C)c1ccc(OCC(O)CN(CCN2CCOCC2)C(=O)Nc2ccc(Br)cc2)cc1 (stereo unspecified)	2.86
CC(O)C1CCCCN1C(=O)c1ccc(-c2ccc(-c3nc4cc(F)ccc4[nH]3)cc2)cc1 (stereo unspecified)	5.66
O=C(NC(NC(=S)Nc1ccc([N+](=O)[O-])cc1)C(Cl)(Cl)Cl)c1cccc(Cl)c1 (stereo unspecified)	15.8
Cc1ccc(Cl)cc1N1CCN(CCCNC(=O)C2CCN(c3nc4ccccc4[nH]3)CC2)CC1	5.88
COc1ccc2nc(-c3ccccc3)cc(N/N=C/c3ccc([N+](=O)[O-])o3)c2c1	7.35
